Assay results from a compilation of properties of binary mixtures (doi:10.1016/j.jct.2020.106150).
Some of these densities may be calculated back from excess volumes.

Assay: xn = mol fraction of the nth substance listed
Settings: 100 kPa

O=Cc1ccco1 + CCCC[P+](C)(CCCC)CCCC.COS(=O)(=O)[O-]
mass density [kg/m3]
Settings	293.15 K	298.15 K	303.15 K	308.15 K	313.15 K	318.15 K	323.15 K
x2 = 0	1160	1155	1149	1144	–	1133	1128
x2 = 0.062	1151	–	1138	1133	1126	–	1114
x2 = 0.1	–	–	1133	1128	–	1117	1110
x2 = 0.142	1141	1134	1128	–	1117	–	1106
x2 = 0.191	–	1129	–	1118	1112	1107	–
x2 = 0.249	1126	1121	1116	1111	1107	–	–
x2 = 0.317	1117	1113	1108	–	1099	1095	1091
x2 = 0.399	1108	1104	1099	1095	1091	1087	1083
x2 = 0.499	1098	1094	1089	1086	1082	–	1074
x2 = 0.624	–	1083	1079	–	1072	1068	1064
x2 = 0.732	1079	1075	–	1068	1064	1061	1056
x2 = 0.823	1073	1069	1065	1062	1058	1055	1049
x2 = 0.863	1071	1067	1063	1060	1056	1053	1047
x2 = 0.91	1068	1064	1060	1057	1054	1050	1045
x2 = 0.951	1065	1062	1058	1055	1052	1049	1045

CCCC[P+](C)(CCCC)CCCC.COS(=O)(=O)[O-] + O=Cc1ccco1
x1 = 1
Settings	mass density [kg/m3]
293.15 K	1062
298.15 K	1059
303.15 K	1056
308.15 K	1053
313.15 K	1049
318.15 K	1046
323.15 K	1043
